Experimental data reported in the supplement of paper PMC11417369.
± gives the standard deviation of the averaged measurements. Some of the results follow.

Test system: PfAP2-I AP2 domain 3 (GST-tagged)
Assay: gcPBM binding intensity (ln(normalized median fluorescence intensity)); higher = stronger DNA binding
How it was run: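 Probes on an Agilent 4 × 180k array were primer-extended, double-stranded and 36 bp long, taken from intergenic genomic regions, with negative controls added. GST-tagged P. falciparum DNA-binding domains from E. coli, about 25 μg on average, were applied to the array for 1 h in 1× PBS containing 1% milk, 0.2 mg/ml BSA, 0.5% salmon testes DNA and 0.03% Triton X-100. Binding intensity, obtained after Alexa488 anti-GST antibody detection and a 488 nm scan, is the highest Masliner-normalised natural-log median intensity across replicate spots of either probe orientation.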

With “AAGGGGAAAAAAAAAAGTACACAAACATAGGATAAT [XGTACX_site377]” as the sequence, how does the “gcPBM binding intensity (ln)” value read?
The value was 7.97 ± 0.61.

With “CAATTAAAATGCAACGGTACACATAAAAAAAATAAA [XGTACX_site6216]” as the sequence, how does the “gcPBM binding intensity (ln)” value read?
The value was 8 ± 0.38.

Which “gcPBM binding intensity (ln)” value does the source give for “TACGGTAAATAGTGTTGTACGATACAATTGTTTTCT [XGTACX_site8118]” here?
The value was 7.45 ± 0.66.

“CCACAAGTATATAGTAGTACAATTTTTTTCTCTTTA [XGTACX_site4403]” was tested. Which “gcPBM binding intensity (ln)” value did it give?
The value was 7.75 ± 0.44.

With “GTATGAAATTATAATAGTACATATAAATAAAAAAAA [XGTACX_site8955]” as the sequence, how does the “gcPBM binding intensity (ln)” value read?
The value was 7.88 ± 0.67.

Which “gcPBM binding intensity (ln)” value does the source give for “TGTATTATATGTAAATGTACATTTAATATTTTATAT [XGTACX_site4461]” here?
The value was 7.78 ± 0.33.

With “TATATATAATATATATATATGGAAATTCTTTTAAAT [XGTACX_negctrl_site50]” as the sequence, how does the “gcPBM binding intensity (ln)” value read?
The value was 7.97 ± 0.14.

For “ACAATATCTAGATACACACACATATCTCTCAATCTA [CACACA_site656]”, which “gcPBM binding intensity (ln)” value is on record?
The value was 7.88 ± 0.52.

How did the “gcPBM binding intensity (ln)” value turn out when “TATAATATTCTATATGCATGTACACCATTCTTTATT [TGCATGCA_site688]” was run?
Its value is 8.02 ± 0.62.

Which “gcPBM binding intensity (ln)” value does the source give for “TTTTTTTTTATTTGTTGTACGAGGTTTTAAAATTTT [XGTACX_site106]” here?
The value was 7.88 ± 0.57.

“AAAAAGGTTATTGGTACACACATATGTATATAAATA [CACACA_site6402]” was tested. Which “gcPBM binding intensity (ln)” value did it give?
The value was 7.78 ± 0.4.

With “TAATAAAACATATATACACACATTATATATACATAT [CACACA_site8495]” as the sequence, how does the “gcPBM binding intensity (ln)” value read?
Its value is 7.75 ± 0.33.

How did the “gcPBM binding intensity (ln)” value turn out when “TATTGTTATCTTTTATGTACTTAAAAAAATAAATTT [XGTACX_site4233]” was run?
Its value is 7.91 ± 0.26.

How did the “gcPBM binding intensity (ln)” value turn out when “GTAGGCATTAAAAAATGTACAAAATATTATGAATTG [XGTACX_site1615]” was run?
Its value is 7.65 ± 0.55.

With “GTTAAAAAAAGGAGAGATCTCACACAAATATATATA [GTGCAC_negctrl_site117]” as the sequence, how does the “gcPBM binding intensity (ln)” value read?
The value was 8.06 ± 0.79.

For “GGGTGCCAAATTAGCACACACATATATACCTGAATT [CACACA_site5551]”, which “gcPBM binding intensity (ln)” value is on record?
The value was 10.3 ± 0.29.

For “AATATATATGAAAAAAGTACTCAAGGAATAAAAAAA [XGTACX_site7720]”, which “gcPBM binding intensity (ln)” value is on record?
The value was 8.13 ± 0.74.

“CATTTAATAATAACAAGTACACAAAGATGTATAACA [XGTACX_site8315]” was tested. Which “gcPBM binding intensity (ln)” value did it give?
Its value is 7.74 ± 0.29.

For “ATGATAAATATAAGTTGTACATATATCTATGTGCAT [XGTACX_site6010]”, which “gcPBM binding intensity (ln)” value is on record?
The value was 7.84 ± 0.53.

Which “gcPBM binding intensity (ln)” value does the source give for “CATAAATACTATATATGTACGTAATTTTTAAAACAT [XGTACX_site7710]” here?
The value was 8.12 ± 0.45.

With “TTACAAATAATTTGTTGTACGCTTTTTTTCTTTTTT [XGTACX_site7199]” as the sequence, how does the “gcPBM binding intensity (ln)” value read?
The value was 7.7 ± 0.4.

With TATATATATATATATGTGCGCATTACTTTAAGAATA as the sequence, how does the “gcPBM binding intensity (ln)” value read?
The value was 9.61 ± 0.16.

Which “gcPBM binding intensity (ln)” value does the source give for “TTATTTTTTTTTTTTTGTACACAATTTGACACATTA [XGTACX_site7983]” here?
The value was 8.06 ± 0.38.

With “TTTATTTAATTATGTTGTACATGTAGGATTTATTTT [XGTACX_site7078]” as the sequence, how does the “gcPBM binding intensity (ln)” value read?
Its value is 7.8 ± 0.38.

With “TAAAAAGTTATATTCACACACATACACATATAAATA [CACACA_site6398]” as the sequence, how does the “gcPBM binding intensity (ln)” value read?
The value was 7.63 ± 0.47.

For “AAAAAGGAAATAATAACACACATTAATAATTATAAA [CACACA_site3401]”, which “gcPBM binding intensity (ln)” value is on record?
Its value is 7.58 ± 0.62.

For “TAATAAATAATGGTTACACACAAAATATAAAACTTA [CACACA_site3544]”, which “gcPBM binding intensity (ln)” value is on record?
The value was 7.5 ± 0.32.

Which “gcPBM binding intensity (ln)” value does the source give for “AATTATAAATCTTGCACACAAAAAAAATAATAAAAA [CACACA_site2434]” here?
Its value is 8.705 ± 0.049.

“TAAACACATATATAGACATGCAACTAGTTTTTATAA [TGCATGCA_site474]” was tested. Which “gcPBM binding intensity (ln)” value did it give?
Its value is 7.54 ± 0.58.

Which “gcPBM binding intensity (ln)” value does the source give for “AAATCTTTGTGTGGATGTACTTTTATAAAAAAGAAT [XGTACX_site3830]” here?
The value was 7.91 ± 0.52.

How did the “gcPBM binding intensity (ln)” value turn out when “TCTGTTCTTTTTTAATGTACAAGAAATATAAAATTC [XGTACX_site3600]” was run?
The value was 7.76 ± 0.37.

How did the “gcPBM binding intensity (ln)” value turn out when “AATTTTTAGTATATAACATAAAATAAAATAAAATAA [GTGCAC_negctrl_site696]” was run?
The value was 7.97 ± 0.85.

How did the “gcPBM binding intensity (ln)” value turn out when “TATTACTTAAATAAAAGTACATATAACATTTTAGTT [XGTACX_site196]” was run?
Its value is 7.62 ± 0.42.

With “AATAGTTGCTAAAGGTGTACAATACATTTATTAGAA [XGTACX_site2773]” as the sequence, how does the “gcPBM binding intensity (ln)” value read?
The value was 8.21 ± 0.47.

“TCTTTGGTATTTACATGTACATATTCTTAAAAACAT [XGTACX_site3124]” was tested. Which “gcPBM binding intensity (ln)” value did it give?
Its value is 8.23 ± 0.47.

“TGTATAGTCTAAAGTTGTACAAAAAAAAAAAAAAAA [XGTACX_site5764]” was tested. Which “gcPBM binding intensity (ln)” value did it give?
The value was 8.07 ± 0.46.

For GAAAATAAAATATTAGTGCATTATTTGATCAATAAT, which “gcPBM binding intensity (ln)” value is on record?
Its value is 11.3 ± 0.73.

How did the “gcPBM binding intensity (ln)” value turn out when “TATATTTATACTTATACACACATTATTGAATTAACC [CACACA_site934]” was run?
The value was 7.73 ± 0.55.

For “AGTGTAAGCTAAGTGGTGCGTTGAATAAGGTTTTTT [GTGCAC_site9951]”, which “gcPBM binding intensity (ln)” value is on record?
The value was 10.7 ± 0.3.

Which “gcPBM binding intensity (ln)” value does the source give for “TATAGGTATTTGTATACACACAAATGTATATATCTA [CACACA_site6713]” here?
Its value is 7.47 ± 0.42.

With “CTTTATATATTTTATTGTACTTAAAAAAAAAAAAAA [XGTACX_site2134]” as the sequence, how does the “gcPBM binding intensity (ln)” value read?
Its value is 8.11 ± 0.42.

How did the “gcPBM binding intensity (ln)” value turn out when “AAAAAATATGCATATACACACATATGTATAAATAAC [CACACA_site7090]” was run?
Its value is 7.92 ± 0.83.

With “AAAATATTTATTCCTAGTACTTACCATTATATATAT [XGTACX_site363]” as the sequence, how does the “gcPBM binding intensity (ln)” value read?
The value was 8.21 ± 0.33.

Which “gcPBM binding intensity (ln)” value does the source give for “AAAAAAAAATGAAAAGAAAAAAAAAGAAAAAAGGGA [CACACA_negctrl_site287]” here?
Its value is 7.67 ± 0.4.

Which “gcPBM binding intensity (ln)” value does the source give for “ATTATTTATATTTGGAGTACTTATAATATTTTTATA [XGTACX_site1289]” here?
The value was 8.02 ± 0.17.

How did the “gcPBM binding intensity (ln)” value turn out when “TATATATATAATATATGTACTCATATTAAGAGATAC [XGTACX_site1354]” was run?
Its value is 8.38 ± 0.22.

“AAAAAAAAAAAAAACACACACACACGCATACACATA [CACACA_site7364]” was tested. Which “gcPBM binding intensity (ln)” value did it give?
The value was 8.46 ± 0.55.

How did the “gcPBM binding intensity (ln)” value turn out when “ATAAATAAAACAAATAGTACAATATAAAAAAAAAGG [XGTACX_site87]” was run?
The value was 8.13 ± 0.67.

How did the “gcPBM binding intensity (ln)” value turn out when “AAGAGGATACACAATGTGCACTTTTTTTTTTTTTTT [GTGCAC_site9415]” was run?
The value was 10.045 ± 0.007.

For “TATACAGATATATATACACACATATATATAAATACA [CACACA_site4383]”, which “gcPBM binding intensity (ln)” value is on record?
The value was 7.54 ± 0.33.

How did the “gcPBM binding intensity (ln)” value turn out when “AATGAGCTTTTTAAAAGTACTAAATATAAATAAATA [XGTACX_site3632]” was run?
Its value is 7.7 ± 0.61.

How did the “gcPBM binding intensity (ln)” value turn out when “TATATATGTATATTTTGTACGTATTTATTTACATGA [XGTACX_site4584]” was run?
The value was 7.68 ± 0.2.

“ATTTTTTTGTTAATTTGTACATAAAATTTTATTTTA [XGTACX_site7007]” was tested. Which “gcPBM binding intensity (ln)” value did it give?
Its value is 7.97 ± 0.69.

For “ATATTTATTTTATAAAGTACTAAAAAATATATTATA [XGTACX_site8522]”, which “gcPBM binding intensity (ln)” value is on record?
Its value is 7.61 ± 0.4.

For “AAAAAAAAAAAAAAAACACACAAACGCTTTTTTTTT [CACACA_site4545]”, which “gcPBM binding intensity (ln)” value is on record?
Its value is 8.92 ± 0.55.

For “GGATAAGAGGCATATACACACAATTTAAAAAAATAA [CACACA_site4657]”, which “gcPBM binding intensity (ln)” value is on record?
Its value is 7.94 ± 0.3.

With “ATAAATATTGCGTGCACACACATAATATTTATATAT [CACACA_site7136]” as the sequence, how does the “gcPBM binding intensity (ln)” value read?
Its value is 10.49 ± 0.021.
